Experimental data from publication PMC6430810 (2019).
These are yes or no findings as the source states them, for the method shown. For part of these data: In cells and extracts the contact can be indirect. Some results given as binding are weak or reduced against the parent protein; the word gives no strength. For part of these data: Where a sequence is shown, tags or fusion partners need not be part of it.

Sequences of proteins named here, by UniProt entry; tags and fusion partners are left off.
UniProt P55884: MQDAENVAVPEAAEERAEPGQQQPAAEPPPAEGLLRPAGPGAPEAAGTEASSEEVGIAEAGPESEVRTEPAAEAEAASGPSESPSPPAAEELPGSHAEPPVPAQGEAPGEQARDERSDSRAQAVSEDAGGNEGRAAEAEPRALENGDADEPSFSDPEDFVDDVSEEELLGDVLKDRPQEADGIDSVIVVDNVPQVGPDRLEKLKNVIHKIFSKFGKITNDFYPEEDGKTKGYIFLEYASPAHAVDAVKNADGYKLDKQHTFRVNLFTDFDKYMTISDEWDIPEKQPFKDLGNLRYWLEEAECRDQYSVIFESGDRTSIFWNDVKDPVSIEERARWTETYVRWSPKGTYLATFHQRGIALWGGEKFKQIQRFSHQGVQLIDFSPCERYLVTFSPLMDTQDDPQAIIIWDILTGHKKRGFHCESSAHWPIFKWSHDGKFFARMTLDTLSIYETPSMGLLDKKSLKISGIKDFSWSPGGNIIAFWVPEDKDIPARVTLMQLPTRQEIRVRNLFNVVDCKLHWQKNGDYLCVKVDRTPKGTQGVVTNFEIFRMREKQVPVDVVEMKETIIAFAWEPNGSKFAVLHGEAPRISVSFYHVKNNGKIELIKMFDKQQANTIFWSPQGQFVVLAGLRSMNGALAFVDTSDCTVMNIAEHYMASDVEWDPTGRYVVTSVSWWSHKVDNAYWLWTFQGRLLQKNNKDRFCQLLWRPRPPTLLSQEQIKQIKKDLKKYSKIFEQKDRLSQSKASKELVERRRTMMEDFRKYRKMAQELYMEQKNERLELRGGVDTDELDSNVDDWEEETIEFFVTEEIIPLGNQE
UniProt O15371: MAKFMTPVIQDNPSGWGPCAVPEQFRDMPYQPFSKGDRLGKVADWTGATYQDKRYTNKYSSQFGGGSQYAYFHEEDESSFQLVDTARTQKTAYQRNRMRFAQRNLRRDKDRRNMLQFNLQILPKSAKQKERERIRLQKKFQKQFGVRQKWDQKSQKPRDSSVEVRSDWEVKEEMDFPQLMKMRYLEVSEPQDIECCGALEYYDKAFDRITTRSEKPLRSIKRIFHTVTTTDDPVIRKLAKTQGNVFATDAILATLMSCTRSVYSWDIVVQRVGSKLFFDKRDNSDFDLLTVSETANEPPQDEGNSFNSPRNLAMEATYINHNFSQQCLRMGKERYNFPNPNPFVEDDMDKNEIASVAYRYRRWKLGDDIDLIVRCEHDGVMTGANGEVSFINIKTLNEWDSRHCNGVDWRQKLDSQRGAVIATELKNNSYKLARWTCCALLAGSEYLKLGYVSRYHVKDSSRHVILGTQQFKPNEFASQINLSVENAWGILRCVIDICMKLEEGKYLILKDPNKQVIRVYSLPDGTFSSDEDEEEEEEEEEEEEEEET
UniProt O00303: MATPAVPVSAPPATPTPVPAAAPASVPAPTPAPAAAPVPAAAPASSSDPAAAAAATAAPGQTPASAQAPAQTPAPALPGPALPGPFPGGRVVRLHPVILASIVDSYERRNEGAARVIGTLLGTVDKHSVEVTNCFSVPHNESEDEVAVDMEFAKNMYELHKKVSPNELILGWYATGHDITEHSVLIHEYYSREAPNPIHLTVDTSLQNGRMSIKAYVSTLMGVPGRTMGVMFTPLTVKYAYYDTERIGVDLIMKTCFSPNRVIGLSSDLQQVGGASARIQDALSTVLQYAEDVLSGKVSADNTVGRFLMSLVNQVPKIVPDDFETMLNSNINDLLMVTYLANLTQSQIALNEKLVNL
UniProt Q9Y262: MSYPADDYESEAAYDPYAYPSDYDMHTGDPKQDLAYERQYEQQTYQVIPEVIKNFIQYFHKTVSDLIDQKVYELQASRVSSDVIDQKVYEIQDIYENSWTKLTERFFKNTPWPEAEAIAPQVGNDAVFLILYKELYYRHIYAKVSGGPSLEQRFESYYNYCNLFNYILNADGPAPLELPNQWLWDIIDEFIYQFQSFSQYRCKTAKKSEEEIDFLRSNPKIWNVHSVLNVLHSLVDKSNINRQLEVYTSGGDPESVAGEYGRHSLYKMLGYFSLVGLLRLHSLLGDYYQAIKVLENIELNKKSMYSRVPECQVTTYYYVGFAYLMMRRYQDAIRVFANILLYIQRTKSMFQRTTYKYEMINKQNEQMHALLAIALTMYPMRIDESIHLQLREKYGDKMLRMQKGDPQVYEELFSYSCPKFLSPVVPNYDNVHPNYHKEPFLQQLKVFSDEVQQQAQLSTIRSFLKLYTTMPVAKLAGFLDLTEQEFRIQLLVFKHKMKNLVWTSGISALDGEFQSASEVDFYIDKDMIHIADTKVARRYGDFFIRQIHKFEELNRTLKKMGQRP
UniProt P60842: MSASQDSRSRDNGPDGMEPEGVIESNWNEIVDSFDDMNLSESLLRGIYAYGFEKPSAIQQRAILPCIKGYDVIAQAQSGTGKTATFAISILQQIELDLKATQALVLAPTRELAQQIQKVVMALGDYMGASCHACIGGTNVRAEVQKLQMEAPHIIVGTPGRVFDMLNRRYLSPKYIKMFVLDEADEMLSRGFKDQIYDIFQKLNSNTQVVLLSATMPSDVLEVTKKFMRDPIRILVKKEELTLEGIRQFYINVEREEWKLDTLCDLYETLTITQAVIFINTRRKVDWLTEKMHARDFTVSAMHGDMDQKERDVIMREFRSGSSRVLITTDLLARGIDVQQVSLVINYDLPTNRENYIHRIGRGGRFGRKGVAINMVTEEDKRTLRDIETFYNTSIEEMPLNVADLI
UniProt Q8N5X7: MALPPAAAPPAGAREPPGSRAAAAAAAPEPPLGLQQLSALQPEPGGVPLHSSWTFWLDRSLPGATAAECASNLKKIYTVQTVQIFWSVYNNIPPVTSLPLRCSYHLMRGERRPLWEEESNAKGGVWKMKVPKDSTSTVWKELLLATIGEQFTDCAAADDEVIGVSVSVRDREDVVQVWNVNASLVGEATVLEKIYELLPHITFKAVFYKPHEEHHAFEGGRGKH
UniProt P06730: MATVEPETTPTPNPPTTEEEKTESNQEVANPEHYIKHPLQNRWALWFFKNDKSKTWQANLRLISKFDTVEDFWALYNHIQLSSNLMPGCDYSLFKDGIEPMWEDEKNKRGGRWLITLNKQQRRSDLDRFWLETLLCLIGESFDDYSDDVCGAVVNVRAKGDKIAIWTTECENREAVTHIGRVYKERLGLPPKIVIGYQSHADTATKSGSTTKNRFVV
UniProt Q04637: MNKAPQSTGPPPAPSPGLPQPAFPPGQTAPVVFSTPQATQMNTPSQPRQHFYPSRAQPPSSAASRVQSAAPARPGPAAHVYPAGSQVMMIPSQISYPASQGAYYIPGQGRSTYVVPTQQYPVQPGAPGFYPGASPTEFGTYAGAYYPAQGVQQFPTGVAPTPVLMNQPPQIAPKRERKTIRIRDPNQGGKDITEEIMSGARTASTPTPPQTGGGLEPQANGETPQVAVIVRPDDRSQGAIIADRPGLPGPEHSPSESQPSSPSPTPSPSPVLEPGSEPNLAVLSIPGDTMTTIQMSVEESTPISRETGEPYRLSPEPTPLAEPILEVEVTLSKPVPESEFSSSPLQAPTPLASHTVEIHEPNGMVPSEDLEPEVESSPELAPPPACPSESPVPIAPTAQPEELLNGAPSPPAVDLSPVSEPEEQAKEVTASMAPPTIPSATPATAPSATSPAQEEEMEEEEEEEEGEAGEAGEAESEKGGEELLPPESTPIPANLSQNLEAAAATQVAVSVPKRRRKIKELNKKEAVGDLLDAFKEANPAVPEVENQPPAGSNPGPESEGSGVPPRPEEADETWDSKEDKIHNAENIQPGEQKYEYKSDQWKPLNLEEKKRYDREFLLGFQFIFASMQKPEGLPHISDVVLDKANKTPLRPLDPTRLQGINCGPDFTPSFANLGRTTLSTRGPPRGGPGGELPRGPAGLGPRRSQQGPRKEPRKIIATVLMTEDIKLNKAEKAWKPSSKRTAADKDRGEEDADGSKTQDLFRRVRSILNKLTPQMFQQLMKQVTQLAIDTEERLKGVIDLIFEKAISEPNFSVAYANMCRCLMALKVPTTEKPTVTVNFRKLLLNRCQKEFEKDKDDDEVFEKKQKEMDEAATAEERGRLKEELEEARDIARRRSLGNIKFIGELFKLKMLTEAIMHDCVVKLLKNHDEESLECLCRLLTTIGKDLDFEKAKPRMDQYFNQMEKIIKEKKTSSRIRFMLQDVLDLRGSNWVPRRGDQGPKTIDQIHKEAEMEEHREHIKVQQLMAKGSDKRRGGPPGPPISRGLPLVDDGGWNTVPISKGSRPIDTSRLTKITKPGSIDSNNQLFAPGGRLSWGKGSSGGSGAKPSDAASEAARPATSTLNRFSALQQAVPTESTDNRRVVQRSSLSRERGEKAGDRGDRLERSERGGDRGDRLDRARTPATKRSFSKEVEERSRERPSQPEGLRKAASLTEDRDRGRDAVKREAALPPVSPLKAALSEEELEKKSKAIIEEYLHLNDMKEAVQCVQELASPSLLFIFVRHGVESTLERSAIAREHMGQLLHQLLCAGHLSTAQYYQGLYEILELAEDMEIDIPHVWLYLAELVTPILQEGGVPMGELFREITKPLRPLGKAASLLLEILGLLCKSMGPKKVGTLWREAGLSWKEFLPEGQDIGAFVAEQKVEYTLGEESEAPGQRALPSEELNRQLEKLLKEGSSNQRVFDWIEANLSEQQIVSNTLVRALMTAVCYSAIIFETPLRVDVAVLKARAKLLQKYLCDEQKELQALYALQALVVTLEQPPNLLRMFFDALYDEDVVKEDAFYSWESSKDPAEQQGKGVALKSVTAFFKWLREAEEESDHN
UniProt P60228: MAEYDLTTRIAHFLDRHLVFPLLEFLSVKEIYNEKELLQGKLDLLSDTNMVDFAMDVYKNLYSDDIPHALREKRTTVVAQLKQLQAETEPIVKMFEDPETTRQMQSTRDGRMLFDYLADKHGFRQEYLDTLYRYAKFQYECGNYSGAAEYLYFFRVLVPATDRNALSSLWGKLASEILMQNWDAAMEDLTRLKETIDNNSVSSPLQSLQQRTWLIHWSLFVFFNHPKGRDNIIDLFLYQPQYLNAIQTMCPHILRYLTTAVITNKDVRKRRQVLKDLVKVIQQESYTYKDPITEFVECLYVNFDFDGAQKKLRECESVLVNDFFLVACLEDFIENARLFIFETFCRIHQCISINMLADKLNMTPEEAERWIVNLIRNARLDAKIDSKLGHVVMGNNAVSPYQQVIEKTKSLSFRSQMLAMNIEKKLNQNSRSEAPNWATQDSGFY

Assays:
[1] = target: T1, GST-TRS (human, from E. coli) (human) (UniProt P26639); test: pull-down; purified GST-TRS on glutathione-Sepharose incubated with 293T lysates holding FLAG-tagged proteins, 4 h at 4 °C; PBS with 0.2% NP-40, 5% glycerol, 1 mM EDTA, 1 mM DTT; anti-FLAG immunoblot; only the target purified
T1 sequence: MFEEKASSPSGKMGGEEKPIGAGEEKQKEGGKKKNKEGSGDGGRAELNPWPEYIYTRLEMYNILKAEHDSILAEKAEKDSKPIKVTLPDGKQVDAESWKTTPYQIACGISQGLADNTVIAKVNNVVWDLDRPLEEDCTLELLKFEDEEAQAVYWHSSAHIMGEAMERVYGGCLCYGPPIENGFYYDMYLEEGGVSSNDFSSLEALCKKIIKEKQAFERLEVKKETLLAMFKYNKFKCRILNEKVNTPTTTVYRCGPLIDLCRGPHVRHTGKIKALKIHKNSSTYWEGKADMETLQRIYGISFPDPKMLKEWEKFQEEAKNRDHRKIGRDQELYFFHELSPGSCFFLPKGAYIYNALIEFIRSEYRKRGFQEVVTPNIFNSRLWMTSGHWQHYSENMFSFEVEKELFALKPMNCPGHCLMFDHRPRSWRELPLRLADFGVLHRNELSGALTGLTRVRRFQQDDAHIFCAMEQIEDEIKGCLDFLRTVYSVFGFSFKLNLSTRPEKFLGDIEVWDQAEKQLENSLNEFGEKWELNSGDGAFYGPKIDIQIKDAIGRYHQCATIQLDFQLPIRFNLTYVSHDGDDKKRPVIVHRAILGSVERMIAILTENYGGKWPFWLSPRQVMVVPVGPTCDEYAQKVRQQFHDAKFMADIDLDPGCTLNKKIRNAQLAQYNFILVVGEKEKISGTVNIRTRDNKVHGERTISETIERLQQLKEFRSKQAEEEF

[2] = target: T2, Myc-TRS (human, wild type) (human) (UniProt P26639); test: co-IP; Myc-TRS and HA-4EHP (or other tagged proteins) co-expressed in 293T; anti-Myc or anti-HA immunoprecipitation; tag-specific immunoblot
T2 sequence: T1 sequence

[3] = target: T3, human threonyl-tRNA synthetase, Strep-tagged (TRS-Strep) (human) (UniProt P26639); test: pull-down; TRS-Strep co-expressed with FLAG-tagged proteins in 293T; pulled down with Strep-Tactin beads; anti-FLAG immunoblot
T3 sequence: T1 sequence

[4] = target: T4, TRS-VN (human TRS fused to the Venus N-domain) (human) (UniProt P26639); test: split reporter; BiFC with Venus; pBiFC-VN173-ARSs co-transfected with pBiFC-VC155-eIF4E isoforms in CHO cells; fluorescence and confocal microscopy
T4 sequence: T1 sequence

[5] = target: T5, endogenous human TRS (human (endogenous in WI-26 and 293T)) (UniProt P26639); test: co-IP; endogenous proteins in WI-26 cell lysates; anti-TRS or anti-4EHP immunoprecipitation; rabbit or mouse IgG as negative control
T5 sequence: T1 sequence

mouse Myc-TRS (mouse) = target: T6, mouse Myc-TRS (mouse) (UniProt Q9D0R2); test: co-IP; Myc-TRS and HA-4EHP (or other tagged proteins) co-expressed in 293T; anti-Myc or anti-HA immunoprecipitation; tag-specific immunoblot
T6 sequence: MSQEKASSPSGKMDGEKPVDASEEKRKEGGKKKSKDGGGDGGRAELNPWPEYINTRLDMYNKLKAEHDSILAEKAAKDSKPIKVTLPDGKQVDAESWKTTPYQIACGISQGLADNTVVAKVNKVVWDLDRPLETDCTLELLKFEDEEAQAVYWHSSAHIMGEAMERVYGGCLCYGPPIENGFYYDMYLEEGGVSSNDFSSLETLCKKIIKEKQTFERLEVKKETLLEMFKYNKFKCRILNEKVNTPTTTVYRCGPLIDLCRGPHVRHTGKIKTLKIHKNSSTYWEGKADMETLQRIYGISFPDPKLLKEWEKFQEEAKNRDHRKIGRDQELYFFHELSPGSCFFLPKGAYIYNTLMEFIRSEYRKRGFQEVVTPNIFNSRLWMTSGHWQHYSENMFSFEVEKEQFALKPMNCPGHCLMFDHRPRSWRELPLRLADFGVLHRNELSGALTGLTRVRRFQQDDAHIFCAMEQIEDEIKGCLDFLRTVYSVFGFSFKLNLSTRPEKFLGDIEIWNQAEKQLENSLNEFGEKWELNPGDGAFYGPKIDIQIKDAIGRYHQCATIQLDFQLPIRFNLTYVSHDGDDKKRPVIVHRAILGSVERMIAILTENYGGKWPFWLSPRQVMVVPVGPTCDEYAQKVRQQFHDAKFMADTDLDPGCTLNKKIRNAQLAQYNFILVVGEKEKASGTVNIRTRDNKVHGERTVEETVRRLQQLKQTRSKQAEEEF

[6] = target: LexA-human TRS fusion protein (human) (UniProt P26639); test: two-hybrid; yeast LexA-B42 screen; LexA-human TRS as bait against a HeLa cDNA library of B42 fusions
[7] = target: T7, nematode Myc-TRS (nematode) (UniProt P52709); test: co-IP; Myc-TRS and HA-4EHP (or other tagged proteins) co-expressed in 293T; anti-Myc or anti-HA immunoprecipitation; tag-specific immunoblot
T7 sequence: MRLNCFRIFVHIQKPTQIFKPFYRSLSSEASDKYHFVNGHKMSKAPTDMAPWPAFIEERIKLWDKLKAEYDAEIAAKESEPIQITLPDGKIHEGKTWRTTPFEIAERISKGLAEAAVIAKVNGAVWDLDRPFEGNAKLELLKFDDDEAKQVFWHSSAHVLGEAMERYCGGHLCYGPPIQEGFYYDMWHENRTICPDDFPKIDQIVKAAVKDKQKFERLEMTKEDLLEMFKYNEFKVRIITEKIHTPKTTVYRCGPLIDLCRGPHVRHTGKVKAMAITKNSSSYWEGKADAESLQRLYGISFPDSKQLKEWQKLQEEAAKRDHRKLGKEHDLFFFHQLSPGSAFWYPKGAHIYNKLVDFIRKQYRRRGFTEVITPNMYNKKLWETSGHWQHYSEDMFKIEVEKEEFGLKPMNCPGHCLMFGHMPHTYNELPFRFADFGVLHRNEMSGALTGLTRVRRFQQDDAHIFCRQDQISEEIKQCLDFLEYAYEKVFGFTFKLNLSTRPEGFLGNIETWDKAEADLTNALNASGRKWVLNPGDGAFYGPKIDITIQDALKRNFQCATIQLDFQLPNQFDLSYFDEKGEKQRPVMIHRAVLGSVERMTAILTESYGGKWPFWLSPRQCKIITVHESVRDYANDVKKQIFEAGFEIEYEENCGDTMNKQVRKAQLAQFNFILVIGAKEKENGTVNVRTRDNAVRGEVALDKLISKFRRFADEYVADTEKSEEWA

With “FLAG-tagged eIF3 subunit B (human) (from UniProt P55884 1-814)” the binding [1] was “binds”.

In the case of “FLAG-tagged eIF3 subunit D (human) (from UniProt O15371 1-548)”, the binding [1] is reported as “binds”.

In the case of “FLAG-tagged eIF3 subunit F (human) (from UniProt O00303 1-357)”, the binding [1] is reported as “binds”.

With “FLAG-tagged eIF3 subunit L (human) (from UniProt Q9Y262 1-564)” the binding [1] was “binds”.

With “eIF4A-FLAG (human eIF4A1) (from UniProt P60842 1-406) (enzyme)” the binding [2] was “binds”, the binding [3] was “binds” and the binding [1] was “binds”.

For “eIF4E3-FLAG (human) (from UniProt Q8N5X7 1-224)”, the binding [3] was “no binding”.

For “eIF4E3-VC (eIF4E3 fused to the Venus C-domain) (from UniProt Q8N5X7 1-224)”, the binding [4] was “no binding”.

For “eIF4E-FLAG (human eIF4E1) (from UniProt P06730 1-217)”, the binding [3] was “no binding”.

“eIF4E-VC (eIF4E1 fused to the Venus C-domain) (from UniProt P06730 1-217)” was tested, and the binding [4] was “no binding”.

“eIF4G-FLAG (human eIF4G1) (from UniProt Q04637 1-1599)” was tested, and the binding [3] was “no binding”.

With “endogenous human eIF3 subunit B (from UniProt P55884 1-814)” the binding [5] was “binds”.

With “endogenous human eIF3 subunit D (from UniProt O15371 1-548)” the binding [5] was “binds”.

For “endogenous human eIF3 subunit E (from UniProt P60228 1-445)”, the binding [5] was “binds”.

For “endogenous human eIF3 subunit F (from UniProt O00303 1-357)”, the binding [5] was “binds”.

“endogenous human eIF3 subunit L (from UniProt Q9Y262 1-564)” was tested, and the binding [5] was “binds”.

In the case of “endogenous human eIF4A (from UniProt P60842 1-406) (enzyme)”, the binding [5] is reported as “binds”.

B1: mouse HA-4EHP (protein, UniProt Q8BMB3 1-245)
chain: MNNKFDALKDDDSGDHDQNEENSTQKDGEKEKTDRDKSQSSGKRKAVVPGPAEHPLQYNYTFWYSRRTPGRPTSSQSYEQNIKQIGTFASVEQFWKFYSHMVRPGDLTGHSDFHLFKEGIKPMWEDDANKNGGKWIIRLRKGLASRCWENLILAMLGEQFMVGEEICGAVVSVRFQEDIISIWNKTASDQATTARIRDTLRRVLNLPPNTIMEYKTHTDSIKMPGRLGPQRLLFQNLWKPRLNVP
With B1 the binding (mouse Myc-TRS (mouse)) was “binds”.

B2: LexA-human TRS fusion protein (enzyme, UniProt P26639 1-723)
chain: T1 sequence
B2 was tested, and the binding [6] was “binds”.

B3: nematode HA-4EHP (protein, UniProt Q22888 1-212)
chain: MEAETSTQEVVKQVKNLPILMEDAPVGSDDHQLQYSYTFSYFMRPTGKFDPEDYASYVQPVGIMKSVEQFWSIMVHFKRPTEMCDKADIHFFKTGVKPVWEDPANCKGGKWIIRLKKGLSTRIWENLLMAIIGEQFLVGDELCGAVCSIRNQEDIISLWNRNADDTPVTNRIRETLRSVLQLPQNTVLEYKRHDDCLRDQSSYRHTTKNICK
For B3, the binding [7] was “no binding”.
